Results from publication PMC4336329 (PLoS ONE, 2015).
Screen size: about 310,000 compounds; about 14,000 (4.5%) showed an effect of 50% or more. Effects have a minus sign here. This is one part of the list.

Target: human ether-à-go-go-related gene (hERG) potassium channel (human, UniProt Q12809)
Assay: primary screen, population patch clamp on CHO cells stably expressing hERG
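Note: peak tail current of the secondary pulse compared with the same well before compound.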

Chain of human ether-à-go-go-related gene (hERG) potassium channel (Q12809 whole entry, looked up): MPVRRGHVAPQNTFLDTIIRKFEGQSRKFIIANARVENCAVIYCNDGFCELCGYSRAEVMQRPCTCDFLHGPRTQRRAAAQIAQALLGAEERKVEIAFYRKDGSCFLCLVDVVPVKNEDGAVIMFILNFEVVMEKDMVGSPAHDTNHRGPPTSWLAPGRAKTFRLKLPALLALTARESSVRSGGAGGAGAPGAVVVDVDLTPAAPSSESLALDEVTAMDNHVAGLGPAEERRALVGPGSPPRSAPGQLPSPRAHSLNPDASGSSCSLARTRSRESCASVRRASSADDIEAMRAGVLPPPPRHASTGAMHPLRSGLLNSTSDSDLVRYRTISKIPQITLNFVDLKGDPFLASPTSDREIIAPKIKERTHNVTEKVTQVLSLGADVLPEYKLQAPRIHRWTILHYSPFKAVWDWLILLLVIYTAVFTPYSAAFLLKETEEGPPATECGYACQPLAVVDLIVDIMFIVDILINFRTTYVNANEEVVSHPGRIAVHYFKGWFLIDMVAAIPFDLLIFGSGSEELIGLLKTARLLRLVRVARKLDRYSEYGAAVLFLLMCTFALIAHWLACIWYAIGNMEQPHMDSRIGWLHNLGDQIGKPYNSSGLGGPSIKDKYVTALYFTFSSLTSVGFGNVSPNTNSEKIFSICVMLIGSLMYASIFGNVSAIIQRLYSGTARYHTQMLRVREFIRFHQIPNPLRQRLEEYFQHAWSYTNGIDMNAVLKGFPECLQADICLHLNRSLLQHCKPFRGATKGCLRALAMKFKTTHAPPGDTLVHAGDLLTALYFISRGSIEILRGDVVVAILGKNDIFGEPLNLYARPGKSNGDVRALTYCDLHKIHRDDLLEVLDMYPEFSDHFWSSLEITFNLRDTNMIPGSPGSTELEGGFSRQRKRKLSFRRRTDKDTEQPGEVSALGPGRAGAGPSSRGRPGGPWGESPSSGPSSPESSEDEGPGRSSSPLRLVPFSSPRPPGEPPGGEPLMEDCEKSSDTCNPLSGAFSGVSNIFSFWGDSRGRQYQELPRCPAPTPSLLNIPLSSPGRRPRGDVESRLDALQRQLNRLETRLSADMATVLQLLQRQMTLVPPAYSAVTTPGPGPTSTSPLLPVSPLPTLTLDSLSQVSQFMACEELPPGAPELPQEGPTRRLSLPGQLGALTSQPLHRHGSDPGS

Compared with `CC(=O)N1CCN(C2=NC(=O)C(=C3CCCCC3)S2)CC1`, `COc1ccc(CCN(CC(=O)NC2CCCC2)C(=O)Cn2nnc(-c3ccc(C)o3)n2)cc1OC` is higher in “hERG current change (%, negative = inhibition) at 10uM” value: -23.8% for the first, -20.6% for the second.

Going from `COc1cc2c(cc1NC(=O)CCCN1C(=O)CCC1=O)oc1ccccc12` to `CCc1ccc(OCC(=O)c2c(O)c3ccccc3oc2=O)cc1`, the “hERG current change (%, negative = inhibition) at 10uM” value rises from -5.16% to 9.48%.

First: O=C(/C=C/c1cn(CC(O)CN2CCOCC2)c2ccccc12)c1cccs1 (stereo not drawn)
Second: O=C(CSc1nnc(CNC(=O)c2cccs2)o1)Nc1ccccc1
The “hERG current change (%, negative = inhibition) at 10uM” value of the first is lower: -21.8% for the first, 3.08% for the second.

Compared with `CCN(CC)c1ccc(C(=S)NCc2ccccc2)cc1`, `Cc1ccc(S(=O)(=O)NC(=S)c2ccccc2)cc1` is higher in “hERG current change (%, negative = inhibition) at 10uM” value: 13% for the first, 15.8% for the second.

First: Cc1cccc(CC2CC(=O)N(CCc3ccc4c(c3)OCO4)C2=O)c1 (stereo not drawn)
Second: COCCCn1c(=NC(=O)c2ccncc2)c(C#N)cc2c(=O)n3cccc(C)c3nc21
The “hERG current change (%, negative = inhibition) at 10uM” value of the first is higher: 34.2% for the first, -68% for the second.

Compared with `COC(=O)C(C(=O)OC)c1ccccc1[N+](=O)[O-]`, `Cc1ccc(C(=O)NNC(=O)COC(=O)COc2ccccc2C#N)cc1` is lower in “hERG current change (%, negative = inhibition) at 10uM” value: 15.3% for the first, 12.8% for the second.

Compared with `CCCCC(=O)NC1(C(F)(F)F)NC(=O)N(C)C1=O` (stereo not drawn), `COc1ccc(/C=N/NC(=S)Nc2cc(C(F)(F)F)ccc2Cl)cc1` is higher in “hERG current change (%, negative = inhibition) at 10uM” value: 11.3% for the first, 12.3% for the second.

Compared with `Cc1ccc(C)c(N(C(=O)c2snc(C(N)=O)c2N)C(C(=O)NCC2CCCO2)c2ccc(C)o2)c1` (stereo not drawn), `COc1ccc(OCc2cc(C(=O)N(C)C3CCOCC3)no2)c2ccccc12` is lower in “hERG current change (%, negative = inhibition) at 10uM” value: 3.36% for the first, -17.5% for the second.

Compared with `C[C@@H]1C[C@H](Nc2ccccc2)c2ccccc2N1C(=O)c1cccnc1`, `Cc1ccccc1NC(=O)NNC(=O)CCc1ccccc1` is higher in “hERG current change (%, negative = inhibition) at 10uM” value: -14.4% for the first, 7.34% for the second.

Compared with `O=C(COC(=O)c1ccc[nH]c1=O)NC1CCCC1`, `COc1ccccc1NC(=O)c1ccc(NC(=O)COC(=O)CCC2CCCC2)cc1` is higher in “hERG current change (%, negative = inhibition) at 10uM” value: 19.3% for the first, 26% for the second.

First: CCN(c1ccc(OC)cc1)S(=O)(=O)c1ccc2c(c1)CC(C)N2C(=O)C1CC1 (stereo not drawn)
Second: CCOC(=O)c1ccc(NC(=O)CN(c2ccc(C)cc2)S(=O)(=O)c2c(C)nn(C)c2C)cc1
The “hERG current change (%, negative = inhibition) at 10uM” value of the first is higher: 19.5% for the first, -6.08% for the second.

Going from `COc1ccc(OC)c2sc(N(CCCN(C)C)C(=O)c3ccc(S(=O)(=O)N4CCc5ccccc5C4)cc3)nc12.Cl` to `COc1ccc(/C=N/NC(=O)c2ccccc2O)cc1CSc1ccccn1`, the “hERG current change (%, negative = inhibition) at 10uM” value rises from -8.54% to -1.66%.
